EC50 data for 2 molecules are collected here from patent US20250368740A1 (SHENZHEN BAISHITONG TECHNOLOGY DEVELOPMENT, published 2025).

Several values for one entry are separate records, joined by “and”; a condition that tells them apart may be missing. Equal entries are not always repeated.

The experiment deals with T1, biotinylated human CD122/132 (human, UniProt P14784 27-239; P31785 23-254, limits assumed, biotinylated (site not stated)).
T1 construct: Bought heterodimeric reagent; also called CD122/CD132
T1 sequence (looked up) 1: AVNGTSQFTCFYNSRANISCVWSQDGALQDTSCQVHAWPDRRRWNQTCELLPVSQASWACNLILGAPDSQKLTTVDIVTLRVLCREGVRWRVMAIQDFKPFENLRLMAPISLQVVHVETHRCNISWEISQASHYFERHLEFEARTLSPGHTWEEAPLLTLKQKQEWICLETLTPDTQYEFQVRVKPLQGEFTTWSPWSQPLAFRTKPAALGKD
T1 sequence (looked up) 2: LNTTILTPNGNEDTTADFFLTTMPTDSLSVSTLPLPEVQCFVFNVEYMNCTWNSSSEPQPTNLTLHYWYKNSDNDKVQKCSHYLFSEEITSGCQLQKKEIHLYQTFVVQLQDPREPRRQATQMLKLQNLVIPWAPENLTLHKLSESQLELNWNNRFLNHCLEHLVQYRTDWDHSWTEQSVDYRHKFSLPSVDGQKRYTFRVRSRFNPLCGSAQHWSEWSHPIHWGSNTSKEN
The experiment is described as follows: sandwich ELISA: antibody on coated human CD276-ECD, biotinylated CD122/132 detected with SA-HRP. The method, then:
The method was as follows: The plates were pre-coated with human CD276-ECD protein diluted to 2 μg/mL in the coating solution (50 mM carbonate coating buffer, pH 9.6) and incubated at 4° C. overnight. The plates were then blocked with 5% skim milk powder at 37° C. for 2 hours. Afterward, the plates were washed 3 times with PBST, and the to-be-tested antibody, diluted in 1% BSA-PBST at various gradients, was added to the blocked plates at 100 μL per well. The plates were incubated at 37° C. for 1 hour. […] Following 3 additional washes with PBST, diluted HRP-conjugated streptavidin (SA) (purchased from Pierce) was added, and the plates were incubated at 37° C. for 30 minutes. After 3 more washes with PBST, residual droplets were removed by blotting on absorbent paper. Then, 100 μL of TMB substrate (purchased from KPL) was added to each well, and the plates were incubated at room temperature (20±5° C.) in the dark for 5 minutes.
As a control, hu147 could bind to CD276 (as shown in Embodiment 8), but not CD122/CD132.
On the technique in general: ELISA stands for enzyme-linked immunosorbent assay.

B1: hu147-IL15 bifunctional antibody SPGL008 (other)
heavy: QVQLVQSGAEVKKPGSSVKVSCKASGYIFTADWIYWVRQAPGQGLEWMGRIYPGVDTTYYAQKFQGRVTITADKSTSTAYMELSSLRSEDTAVYYCARGGEVRRDFYALDYWGQGTTVTVSS[in this place human IgG1 constant region with changes]GGGGSGGGGSGGGGSITCPPPMSVEHADIWVKSYSLYSRERYICNSGFKRKAGTSSLTECVLNKATNVAHWTTPSLKCIRGGGGSGGGGSGGGGSGGGGSGGGGSGGGGS[in this place about 120 residues]
light: EIVMTQSPPTLSLSPGERVTLSCRASENVGTYVSWYQQKPGQAPRLLIYGASNRYTGIPARFSGSGSGTDFTLTISSLQPEDFAVYYCGQRYSYPFTFGGGTKLEIKRTVAAPSVFIFPPSDEQLKSGTASVVCLLNNFYPREAKVQWKVDNALQSGNSQESVTEQDSKDSTYSLSSTLTLSKADYEKHKVYACEVTHQGLSSPVTKSFNRGEC
notes: About 190 kDa
A word on the EC50: it is the concentration needed to bring the measured effect to its halfway point. In the case of B1, the EC50 is 0.0177 µg/mL and 0.09 nM.

B2: hu147-IL15 bifunctional antibody SPGL007 (other)
heavy: QVQLVQSGAEVKKPGSSVKVSCKASGYIFTADWIYWVRQAPGQGLEWMGRIYPGVDTTYYAQKFQGRVTITADKSTSTAYMELSSLRSEDTAVYYCARGGEVRRDFYALDYWGQGTTVTVSS[in this place human IgG1 constant region]GGGGSGGGGSGGGGSITCPPPMSVEHADIWVKSYSLYSRERYICNSGFKRKAGTSSLTECVLNKATNVAHWTTPSLKCIRGGGGSGGGGSGGGGSGGGGSGGGGSGGGGS[in this place about 120 residues]
light: EIVMTQSPPTLSLSPGERVTLSCRASENVGTYVSWYQQKPGQAPRLLIYGASNRYTGIPARFSGSGSGTDFTLTISSLQPEDFAVYYCGQRYSYPFTFGGGTKLEIKRTVAAPSVFIFPPSDEQLKSGTASVVCLLNNFYPREAKVQWKVDNALQSGNSQESVTEQDSKDSTYSLSSTLTLSKADYEKHKVYACEVTHQGLSSPVTKSFNRGEC
notes: About 190 kDa
Take B2: the EC50 was 0.0151 µg/mL and 0.08 nM.
